Measured values from PubChem BioAssay AID1345082 (National Center for Advancing Translational Sciences (NCATS), 2018).
The whole screen tested about 94,000 compounds, of which about 4,000 (4.3%) were called active. The inconclusive results got no clear call from the source; some entries with a clear call stand among them for comparison. Calls come from the whole dose curve; as a rule, active = well fitted inhibition curve with a large enough effect; inconclusive = small, poorly fitted or top-dose-only effect; inactive = no such curve, though single readings can be large or run the other way. Where the call is inconclusive, the potency comes from a doubtful curve fit.
% is set by controls: 0 for no effect and ±100 for the full control effect; potency is the fitted concentration of half-maximal effect; tags give direction and shape of the fitted curve.

Test: Cytotoxic Profiling in NIH 3T3 Cell Line of Diverse Libraries Using Quantitative High-Throughput Screening; note: nearly all actives have a fitted effect of over 55% in size
Details: NIH 3T3 viability, CellTiter-Glo ATP luminescence, 48-72 h; activity change, negative = cytotoxicity: at 96.7 µM (top of the series) unless noted; series mostly up to 96.7 µM
Method in brief: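 Luminescent ATP readout (CellTiter-Glo, 10 min RT) after 48 or 72 hr compound exposure of NIH 3T3 cells seeded at 400 cells/well in 1536-well format; quantitative HTS.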
With Cc1ccc(CN2CCC(Cn3c(C)cnc3-c3cccnc3)CC2)s1 the Potency was inconclusive: 12.6 µM [inhibitor, full curve].
With COCCNC(=O)[C@@H]1C[C@H](Oc2cccnc2)CN1C(=O)c1ccccn1 the “activity change, negative = cytotoxicity” value was inactive: -9.43%.
With COc1cccc(CC(=O)NCCn2ccn3nc(-c4cccc(OC)c4)cc3c2=O)c1 the Potency was inconclusive: 50.1 µM [inhibitor, single point].
In the case of COc1ccccc1-n1cc(C(=O)N(C)Cc2noc3c2CCCC3)cn1, the Potency is reported as inconclusive: 44.7 µM [inhibitor, partial curve].
For O=C1COc2ccc(-c3ccc(Cl)cc3)nc2CN1Cc1ccccc1, the Potency was inconclusive: 56.2 µM [inhibitor, partial curve, poor fit].
In the case of CN1CCCN(S(=O)(=O)c2ccc(Cl)s2)c2ccccc21, the Potency is reported as inconclusive: 44.7 µM [inhibitor, partial curve, poor fit].
For COc1ccc(C(=O)NCCC2CCN(C(=O)Nc3ccc(C)cc3)CC2)cc1, the “activity change, negative = cytotoxicity” value was inactive: -20.9%.
In the case of O=C(C1CCCN1C(=O)Nc1ccc(Cl)cc1)N1CCC(N2Cc3ccccc3C2=O)CC1 (stereo not given), the Potency is reported as inconclusive: 31.6 µM [inhibitor, full curve, poor fit].
In the case of CCCN1CCCC2(CCN(C(=O)c3ccc4nc(C)sc4c3)C2)C1=O (stereo not given), the Potency is reported as inconclusive: 89.1 µM [inhibitor, single point].
With CN(Cc1ccccc1)C(=O)c1cccc2c1CCN2C(=O)Nc1ccccc1 the Potency was inconclusive: 44.7 µM [inhibitor, partial curve, poor fit].
In the case of CC(C(=O)N1CCn2nc(Cc3ccccc3)cc2C1)c1ccc(O)cc1 (stereo not given), the Potency is reported as inconclusive: 50.1 µM [inhibitor, partial curve, poor fit].
With O=C1Cc2c(-c3ccccc3Oc3ccccc3)n[nH]c2CN1Cc1ccccc1F the Potency was inconclusive: 44.7 µM [inhibitor, full curve].
In the case of CCn1cc(CN2CCCC23CCN(c2ccc(C(F)(F)F)cn2)CC3)c(C)n1, the Potency is reported as inconclusive: 56.2 µM [inhibitor, partial curve, poor fit].
With COc1ccc(CC(=O)N2CCC(N3C(=O)c4c(c(C)nn4-c4ccccc4)C3C(C)C)C2)cc1 (stereo not given) the Potency was active: 39.8 µM.
In the case of Cc1cnc(-c2ccccc2)n1C1CCNCC1, the “activity change, negative = cytotoxicity” value is reported as inactive: -11.9%.
With COc1ccc(CC(=O)NCCNC(=O)c2cccc(-c3ccsc3)c2)cc1 the “activity change, negative = cytotoxicity” value was inactive: -13.2%.
With O=C(C1=NO[C@@H]2CN(Cc3ccc(F)cc3)C[C@H]12)N1CCN(c2ccccn2)CC1 the Potency was inconclusive: 79.4 µM [inhibitor, partial curve, poor fit].
With CN1CCC(C(=O)N2CCC3(CC2)CC(N[S+](C)(=O)[O-])c2ccccc23)CC1 (stereo not given) the “outcome” value was “inactive”.
With O=C(c1cccs1)N1CCc2nn(Cc3ccccc3)c(=O)n2CC1 the “activity change, negative = cytotoxicity” value was inactive: -20.1%.
With CN(C)c1ccc(-c2cc3c(ccn3C)c(C(=O)NCc3cccnc3)n2)cc1 the Potency was inconclusive: 44.7 µM [inhibitor, full curve].
With CC(C)(C)C(=O)NCCNC(=O)c1ccc(-c2cccc(C(F)(F)F)c2)cc1 the Potency was inconclusive: 50.1 µM [inhibitor, partial curve, poor fit].
In the case of O=C1c2c(nc(CNCc3cccnc3)n2Cc2ccccc2)NCCN1CC1CCOCC1, the Potency is reported as inconclusive: 70.8 µM [inhibitor, single point].
With O=C(N[C@H]1CCN2C(=O)c3cc(-c4cccc(C(F)(F)F)c4)ccc3NC(=O)[C@@H]2C1)c1ccncc1 the Potency was inconclusive: 44.7 µM [inhibitor, partial curve, poor fit].
In the case of Cc1cc(OCCN2CCOCC2)c(C)c2c1CC[C@@H]([C@H](C)C(=O)N1CCCCC1)C2, the Potency is reported as inconclusive: 39.8 µM [inhibitor, partial curve, poor fit].
In the case of O=C1CC2(CCN(C(=O)C3CCc4ccccc43)CC2)CN1Cc1ccccc1 (stereo not given), the Potency is reported as inconclusive: 44.7 µM [inhibitor, partial curve].
With CC(C)CC(=O)N[C@@H]1CN(Cc2ccccc2)C[C@H]1CN(C)C the “activity change, negative = cytotoxicity” value was inactive: -25.8%.
With CC(=O)N1CCC(Nc2ncccc2-c2cc(-c3ccccc3)nc3c(C)noc23)CC1 the Potency was inconclusive: 112 µM [inhibitor, partial curve, poor fit].
In the case of Cc1ccncc1-c1c(C)nn2c1N(Cc1ccc(C(=O)O)cc1)CCC2, the Potency is reported as inconclusive: 100 µM [inhibitor, single point].
In the case of CN(C)c1nccnc1OC1CCN(C(=O)CCCc2ccccc2)C1 (stereo not given), the “activity change, negative = cytotoxicity” value is reported as inactive: -10.7%.
In the case of CN1C(=O)[C@@H]2C[C@@H](O)CN2C2(CN(C3CCCCC3)C2)C1=O, the “activity change, negative = cytotoxicity” value is reported as inactive: 3.03% [at 174 µM].
With Cc1ccc(-c2nnc3ccc(Nc4cccc(N(C)C)c4)nn23)nc1 the Potency was inconclusive: 79.4 µM [inhibitor, partial curve].
With Cc1ccccc1C(=O)N1CC(N2C(=O)c3c(c(C)nn3-c3ccccc3)C2C(C)C)C1 (stereo not given) the Potency was inconclusive: 44.7 µM [inhibitor, partial curve, poor fit].
In the case of CCOc1ccc(C(=O)N2CCC(c3n[nH]c(=O)n3-c3ccccc3)CC2)cc1OCC, the Potency is reported as inconclusive: 22.4 µM [inhibitor, partial curve].
With Cc1ccc(-c2cc3c(=O)n(CCNC(=O)c4cc(C5CC5)[nH]n4)ccn3n2)c(C)c1 the “activity change, negative = cytotoxicity” value was inactive: -25.6%.
For O=C(CCC1CCCN(Cc2cnc(-c3ccccc3)s2)C1)Nc1ccccc1F (stereo not given), the Potency was inconclusive: 50.1 µM [inhibitor, partial curve, poor fit].
With CN1Cc2ccc(NCc3ccccc3)nc2C(C)(C(=O)NCc2cccnc2)C1 (stereo not given) the Potency was inconclusive: 63.1 µM [inhibitor, partial curve, poor fit].
With COCCN1CC2(CCCN(C(=O)c3cc(-c4ccsc4)n[nH]3)C2)CCC1=O (stereo not given) the Potency was inconclusive: 89.1 µM [inhibitor, single point].
In the case of COC[C@@]12CN(Cc3ccccc3)C[C@@H]1C(C)(C)COc1ccc(OC)cc12, the Potency is reported as inconclusive: 44.7 µM [inhibitor, partial curve, poor fit].
With COc1cccc(CN2CC[C@H](c3n[nH]c(C)n3)[C@H](NC(=O)C3CC3)C2)c1 the “activity change, negative = cytotoxicity” value was inactive: 2.3%.
With COc1ccc(-c2nc(C)nc3c2CN(C(=O)C(C)(C)C)CC3)cc1 the “activity change, negative = cytotoxicity” value was inactive: -21.9% [at 138 µM].
